Experimental findings from the supplement of paper PMC8728848 are described below.

What all share (test): glycan array binding signal (z-score within array); higher = stronger binding
Settings in all cases: glycan notation: IUPAC condensed, linker removed

The target of test [1] is Gal(b1-4)GlcNAc(b1-2)[Gal(b1-4)GlcNAc(b1-6)]Man(a1-6)[GlcNAc(b1-4)][Gal(b1-4)GlcNAc(b1-2)Man(a1-3)]Man(b1-4)GlcNAc(b1-4)GlcNAc. The essentials: (§1)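 Glycan array data were curated from 3228 arrays in the Consortium for Functional Glycomics database and kept only where the protein sequence was available. Glycan names were converted to IUPAC-condensed notation, and columns mapping to the same glycan were averaged. The binding signal is a within-array Z-score, averaged across arrays of the same protein sequence at different concentrations or buffers and across linkers. Negative Z-scores can be read as non-binding.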

Test [2] addresses Gal(b1-4)GlcNAc(b1-2)[Gal(b1-4)GlcNAc(b1-6)]Man(a1-6)[GlcNAc(b1-4)][Gal(b1-4)GlcNAc(b1-2)[Gal(b1-4)GlcNAc(b1-4)]Man(a1-3)]Man(b1-4)GlcNAc(b1-4)[Fuc(a1-6)]GlcNAc. The essentials:
as §1

Test [3] has as its target Gal(b1-4)GlcNAc(b1-3)Gal(b1-3)GalNAc. In a few lines:
as §1

In test [4] the target is Gal(b1-4)GlcNAc(b1-3)Gal(b1-3)GlcNAc. In a few lines: as §1
Test [5] concerns the target Gal(b1-4)GlcNAc(b1-3)Gal(b1-4)Glc. In a few lines:
as §1

The target of test [6] is Gal(b1-4)GlcNAc(b1-3)Gal(b1-4)GlcNAc. The essentials: as §1
In test [7] the target is Gal(b1-4)GlcNAc(b1-3)Gal(b1-4)GlcNAc(b1-2)Man(a1-3)[Gal(b1-4)GlcNAc(b1-3)Gal(b1-4)GlcNAc(b1-2)Man(a1-6)]Man(b1-4)GlcNAc(b1-4)GlcNAc. The essentials: as §1
The target in test [8] is Gal(b1-4)GlcNAc(b1-3)Gal(b1-4)GlcNAc(b1-2)Man(a1-3)[Gal(b1-4)GlcNAc(b1-3)Gal(b1-4)GlcNAc(b1-2)Man(a1-6)]Man(b1-4)GlcNAc(b1-4)[Fuc(a1-6)]GlcNAc. In a few lines: as §1
In test [9] the target is Gal(b1-4)GlcNAc(b1-3)Gal(b1-4)GlcNAc(b1-2)[Gal(b1-4)GlcNAc(b1-3)Gal(b1-4)GlcNAc(b1-6)]Man(a1-6)[Gal(b1-4)GlcNAc(b1-3)Gal(b1-4)GlcNAc(b1-2)Man(a1-3)]Man(b1-4)GlcNAc(b1-4)GlcNAc. In a few lines:
as §1

Test [10] concerns the target Gal(b1-4)GlcNAc(b1-3)Gal(b1-4)GlcNAc(b1-2)[Gal(b1-4)GlcNAc(b1-3)Gal(b1-4)GlcNAc(b1-6)]Man(a1-6)[Gal(b1-4)GlcNAc(b1-3)Gal(b1-4)GlcNAc(b1-2)Man(a1-3)]Man(b1-4)GlcNAc(b1-4)[Fuc(a1-6)]GlcNAc. In a few lines:
as §1

The target of test [11] is Gal(b1-4)GlcNAc(b1-3)Gal(b1-4)GlcNAc(b1-3)Gal(b1-4)GlcNAc. In a few lines:
as §1

The target in test [12] is Gal(b1-4)GlcNAc(b1-3)Gal(b1-4)GlcNAc(b1-3)Gal(b1-4)GlcNAc(b1-2)Man(a1-3)[Gal(b1-4)GlcNAc(b1-3)Gal(b1-4)GlcNAc(b1-3)Gal(b1-4)GlcNAc(b1-2)Man(a1-6)]Man(b1-4)GlcNAc(b1-4)GlcNAc. In a few lines:
as §1

The target of test [13] is Gal(b1-4)GlcNAc(b1-3)Gal(b1-4)GlcNAc(b1-3)Gal(b1-4)GlcNAc(b1-2)Man(a1-3)[Gal(b1-4)GlcNAc(b1-3)Gal(b1-4)GlcNAc(b1-3)Gal(b1-4)GlcNAc(b1-2)Man(a1-6)]Man(b1-4)GlcNAc(b1-4)[Fuc(a1-6)]GlcNAc. The essentials: as §1
Test [14] addresses Gal(b1-4)GlcNAc(b1-3)Gal(b1-4)GlcNAc(b1-3)Gal(b1-4)GlcNAc(b1-2)[Gal(b1-4)GlcNAc(b1-3)Gal(b1-4)GlcNAc(b1-3)Gal(b1-4)GlcNAc(b1-6)]Man(a1-6)[Gal(b1-4)GlcNAc(b1-3)Gal(b1-4)GlcNAc(b1-3)Gal(b1-4)GlcNAc(b1-2)Man(a1-3)]Man(b1-4)GlcNAc(b1-4)[Fuc(a1-6)]GlcNAc. In a few lines:
as §1

Test [15] deals with Gal(b1-4)GlcNAc(b1-3)Gal(b1-4)GlcNAc(b1-3)Gal(b1-4)GlcNAc(b1-3)Gal(b1-4)GlcNAc(b1-2)Man(a1-3)[Gal(b1-4)GlcNAc(b1-3)Gal(b1-4)GlcNAc(b1-3)Gal(b1-4)GlcNAc(b1-3)Gal(b1-4)GlcNAc(b1-2)Man(a1-6)]Man(b1-4)GlcNAc(b1-4)GlcNAc. The essentials:
as §1

Test [16] has as its target Gal(b1-4)GlcNAc(b1-3)Gal(b1-4)GlcNAc(b1-3)Gal(b1-4)GlcNAc(b1-3)Gal(b1-4)GlcNAc(b1-2)Man(a1-3)[Gal(b1-4)GlcNAc(b1-3)Gal(b1-4)GlcNAc(b1-3)Gal(b1-4)GlcNAc(b1-3)Gal(b1-4)GlcNAc(b1-2)Man(a1-6)]Man(b1-4)GlcNAc(b1-4)[Fuc(a1-6)]GlcNAc. The essentials:
as §1

The target of test [17] is Gal(b1-4)GlcNAc(b1-3)Gal(b1-4)GlcNAc(b1-3)Gal(b1-4)GlcNAc(b1-3)Gal(b1-4)GlcNAc(b1-2)[Gal(b1-4)GlcNAc(b1-3)Gal(b1-4)GlcNAc(b1-3)Gal(b1-4)GlcNAc(b1-3)Gal(b1-4)GlcNAc(b1-6)]Man(a1-6)[Gal(b1-4)GlcNAc(b1-3)Gal(b1-4)GlcNAc(b1-3)Gal(b1-4)GlcNAc(b1-3)Gal(b1-4)GlcNAc(b1-2)Man(a1-3)]Man(b1-4)GlcNAc(b1-4)[Fuc(a1-6)]GlcNAc. The essentials:
as §1

Test [18] deals with Gal(b1-4)GlcNAc(b1-3)Gal(b1-4)GlcNAc(b1-3)Gal(b1-4)GlcNAc(b1-3)Gal(b1-4)GlcNAc(b1-3)Gal(b1-4)GlcNAc(b1-2)Man(a1-3)[Gal(b1-4)GlcNAc(b1-3)Gal(b1-4)GlcNAc(b1-3)Gal(b1-4)GlcNAc(b1-3)Gal(b1-4)GlcNAc(b1-3)Gal(b1-4)GlcNAc(b1-2)Man(a1-6)]Man(b1-4)GlcNAc(b1-4)GlcNAc. The essentials: as §1
Test [19] has as its target Gal(b1-4)GlcNAc(b1-3)Gal(b1-4)GlcNAc(b1-3)Gal(b1-4)GlcNAc(b1-3)Gal(b1-4)GlcNAc(b1-3)Gal(b1-4)GlcNAc(b1-2)Man(a1-3)[Gal(b1-4)GlcNAc(b1-3)Gal(b1-4)GlcNAc(b1-3)Gal(b1-4)GlcNAc(b1-3)Gal(b1-4)GlcNAc(b1-3)Gal(b1-4)GlcNAc(b1-2)Man(a1-6)]Man(b1-4)GlcNAc(b1-4)[Fuc(a1-6)]GlcNAc. In a few lines:
as §1

Test [20] has as its target Gal(b1-4)GlcNAc(b1-3)Gal(b1-4)GlcNAc(b1-3)Gal(b1-4)GlcNAc(b1-3)Gal(b1-4)GlcNAc(b1-3)Gal(b1-4)GlcNAc(b1-2)[Gal(b1-4)GlcNAc(b1-3)Gal(b1-4)GlcNAc(b1-3)Gal(b1-4)GlcNAc(b1-3)Gal(b1-4)GlcNAc(b1-3)Gal(b1-4)GlcNAc(b1-6)]Man(a1-6)[Gal(b1-4)GlcNAc(b1-3)Gal(b1-4)GlcNAc(b1-3)Gal(b1-4)GlcNAc(b1-3)Gal(b1-4)GlcNAc(b1-3)Gal(b1-4)GlcNAc(b1-2)Man(a1-3)]Man(b1-4)GlcNAc(b1-4)[Fuc(a1-6)]GlcNAc. In a few lines:
as §1

In test [21] the target is Gal(b1-4)GlcNAc(b1-3)Gal(b1-4)GlcNAc(b1-3)Gal(b1-4)GlcNAc(b1-3)Gal(b1-4)GlcNAc(b1-3)Gal(b1-4)GlcNAc(b1-3)Gal(b1-4)GlcNAc(b1-2)Man(a1-3)[Gal(b1-4)GlcNAc(b1-3)Gal(b1-4)GlcNAc(b1-3)Gal(b1-4)GlcNAc(b1-3)Gal(b1-4)GlcNAc(b1-3)Gal(b1-4)GlcNAc(b1-3)Gal(b1-4)GlcNAc(b1-2)Man(a1-6)]Man(b1-4)GlcNAc(b1-4)GlcNAc. In a few lines: as §1
The target in test [22] is Gal(b1-4)GlcNAc(b1-3)Gal(b1-4)GlcNAc(b1-3)GalNAc. The essentials:
as §1

Test [23] has as its target Gal(b1-4)GlcNAc(b1-3)Gal(b1-4)GlcNAc(b1-3)[Gal(b1-4)GlcNAc(b1-3)Gal(b1-4)GlcNAc(b1-6)]GalNAc. The essentials:
as §1

The list shows a part of the results.

B1: Pwp5 ND (Candida glabrata) (protein)
chain: MGSSHHHHHHSSGLVPRGSHMASANPVPLTNVCYFPEEYPRQAGFRAITAGLASTILQGSVDELLNYSGLSSLTTQQTTTTTPNFQLPTLPLPTNVYGLTVVPLYLLVQLQGYFVPPVSGQYTFSLENTNDAAIIFFGNPSAFPCGDLSAWPQASADDITVTDGTFPSRTLFLKAGVAYPMRISYYNSLGSGNLAVSFTDPGGTKRTNWNGYIWRYNSCSTCTYT
Turning to B1, the “glycan array binding signal (z-score)” value was -0.402 in test [1]; -0.327 in test [2]; -0.402 in test [3]; -0.302 in test [4]; -0.486 in test [5]; -0.685 in test [6]. The “glycan array binding signal (z-score)” value is 0.832 in test [7]; 0.068 in test [8]; 1.03 in test [9]; 0.419 in test [10]; -0.555 in test [11]; 0.12 in test [12]. For the same molecule, the “glycan array binding signal (z-score)” value in test [13] is 3.19; in [14], -0.277; in test [15] it was -0.295; in test [16], 0.794; in [17], -0.228; in test [18], 0.088. In addition, the “glycan array binding signal (z-score)” value in [19] worked out at 0.558; in test [20], 1.94; in test [21], 0.987; in test [22], 0.018; in [23], 0.621.
